The campaign covered roughly 310,000 compounds. About 2,200 (0.71%) showed an effect of 50% or more. The effect is printed as a negative number. This is one part of the list.
These compounds were tested against human ether-à-go-go-related gene (hERG) potassium channel (human, UniProt Q12809) (assay: primary screen, population patch clamp on CHO cells stably expressing hERG).
human ether-à-go-go-related gene (hERG) potassium channel, sequence (Q12809 whole entry, looked up): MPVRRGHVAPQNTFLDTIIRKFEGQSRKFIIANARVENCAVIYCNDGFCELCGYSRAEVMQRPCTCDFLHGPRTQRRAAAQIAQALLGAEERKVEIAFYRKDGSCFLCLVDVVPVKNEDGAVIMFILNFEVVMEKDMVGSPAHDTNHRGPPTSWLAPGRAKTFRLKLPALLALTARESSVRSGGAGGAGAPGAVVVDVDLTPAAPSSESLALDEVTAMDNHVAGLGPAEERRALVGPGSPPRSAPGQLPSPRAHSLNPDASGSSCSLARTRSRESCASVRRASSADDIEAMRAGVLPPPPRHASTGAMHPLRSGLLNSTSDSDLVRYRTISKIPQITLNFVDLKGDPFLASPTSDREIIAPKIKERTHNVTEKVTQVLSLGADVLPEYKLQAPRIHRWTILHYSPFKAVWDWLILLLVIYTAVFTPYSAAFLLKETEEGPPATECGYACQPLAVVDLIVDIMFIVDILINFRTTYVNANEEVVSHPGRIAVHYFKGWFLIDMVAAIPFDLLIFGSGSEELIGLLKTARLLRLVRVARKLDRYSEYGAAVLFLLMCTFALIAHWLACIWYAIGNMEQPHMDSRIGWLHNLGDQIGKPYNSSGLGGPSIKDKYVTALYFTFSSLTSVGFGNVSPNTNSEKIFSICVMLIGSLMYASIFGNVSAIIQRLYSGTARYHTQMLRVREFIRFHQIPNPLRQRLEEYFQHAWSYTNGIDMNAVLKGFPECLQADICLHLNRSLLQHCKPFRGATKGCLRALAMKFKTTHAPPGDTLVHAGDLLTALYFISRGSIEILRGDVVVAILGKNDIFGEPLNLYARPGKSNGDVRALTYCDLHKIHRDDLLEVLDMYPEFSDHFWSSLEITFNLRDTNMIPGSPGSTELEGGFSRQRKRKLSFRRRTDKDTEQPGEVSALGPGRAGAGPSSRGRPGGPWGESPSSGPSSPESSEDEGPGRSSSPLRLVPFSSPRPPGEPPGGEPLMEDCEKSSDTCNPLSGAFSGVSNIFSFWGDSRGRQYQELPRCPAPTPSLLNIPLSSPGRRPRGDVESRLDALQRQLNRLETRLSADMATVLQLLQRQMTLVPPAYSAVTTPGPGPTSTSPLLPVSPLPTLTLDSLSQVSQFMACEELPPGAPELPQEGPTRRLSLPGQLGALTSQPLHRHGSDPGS

SMILES | hERG current change (%, negative = inhibition) at 1uM
CC(=O)c1ccc(N2C(=O)NC3(CCCCC3)C2=O)cc1 | 4.42%
CCc1noc(C)c1C(=O)Oc1ccc(N(C)S(=O)(=O)c2ccc(C)cc2)cc1 | 0.292%
COc1ccc(C2C(C(=O)Nc3cccc(C)n3)CCC(=O)N2c2ccc(OC)cc2)cc1 (stereo not shown) | -0.0137%
CN(C(=O)c1ccc(F)c(S(=O)(=O)N2CCOCC2)c1)C1CCCCC1 | 7.37%
CCCCOC(=O)CSc1nnc(-c2cc(OC)c(OC)c(OC)c2)o1 | 3.76%
CCCn1c(C)cc(/C=C(\C#N)C(=O)OCC(=O)Nc2cccc(OC)c2)c1C | 16.5%
c1ccc2[nH]c(NCCN3CCOCC3)nc2c1 | 13.2%
CCCn1c2c(c(=N)c3c1CCC3)CCC2.I | 8.15%
Nc1nc2c(s1)CCc1c-2cnn1-c1ccccc1 | 9.35%
CNc1nc(N)nc(OC(C(F)(F)F)C(F)(F)F)n1 | 15.6%
O=C(/C=C/c1ccc(Br)o1)Nc1nnc(C2CC2)s1 | 3.12%
CN(c1ccc(C(=O)N2CCN(Cc3ccc4c(c3)OCO4)CC2)cc1)S(C)(=O)=O | 13.1%
COc1ccc(NC(=O)COC(=O)C23CC4CC(CC(Cl)(C4)C2)C3)c(OC)c1 | 11.7%
C/C(=N\NC(=O)c1ccc(O)cc1)c1ccc(N2CCOCC2)cc1 | 11%
O=C(N/N=C/c1ccc(OC(F)F)cc1)c1cc[n+]([O-])cc1 | 12.2%
CCOc1ccc(NC(=O)CCS(=O)(=O)c2cccc3nsnc23)cc1 | 5.74%
COc1ccc(C2C(=O)c3ccccc3C2=Nc2ccc(Br)cc2)cc1 (stereo not shown) | 13.7%
CCOc1ccccc1NC(=O)Nc1c(C)n(-c2ccccc2)c(=O)n1C | 2.46%
CN1C(=O)CSc2ccc(NC(=O)N3CCN(c4ccccc4)CC3)cc21 | 0.102%
S=c1[nH]nc(C2CCCCC2)o1 | 4.92%
CN(Cc1cccc(F)c1)C(=O)c1ccc2c(=O)n3c(nc2c1)CCC3 | 12.5%
CCc1ccc(C(C)NC(=S)NC2CCCCC2)cc1 (stereo not shown) | 16.7%
O=C(NCC(c1ccco1)N1CCOCC1)c1c(F)cccc1F (stereo not shown) | -0.879%

SMILES | hERG current change (%, negative = inhibition) at 1uM
Cc1cc(C(=O)Nc2ccccc2)c(C)o1 | 11.8%
Cc1ccc(Cn2ncc(Cl)c(Cl)c2=O)cc1 | 15.1%
NC(=O)c1nsc(C(=O)N(c2cccc(F)c2)C(C(=O)NC2CCCC2)c2ccco2)c1N (stereo not shown) | 14.1%
CCOC(=O)c1sc2nc3n(c(=O)c2c1C)CCC(C)CC3 (stereo not shown) | 0.194%
Cc1ccc(N2CC(C(=O)Nc3nnc(SCC(=O)NCC4CCCO4)s3)CC2=O)cc1 (stereo not shown) | 24.2%
Cc1cc(C(=O)N/N=C/c2cccn2C)no1 | 8.86%
CC1CC(C)CN(C(=O)CCc2ccccc2)C1 (stereo not shown) | 11.7%
COc1cc(NC(=O)Cc2ccccc2)cc(OC)c1 | 7.71%
CCCCn1c(N)c(N(CC)C(=O)c2c(CC)noc2C)c(=O)[nH]c1=O | 15.3%
CC(=O)Nc1c(O)[nH]c2ccccc12 | 8.05%
COC(=O)CNC(=O)c1cn(-c2ccc(C)c(C)c2)c(=O)c2ccccc12 | 11%
COc1ccccc1C1=CC(=O)CC(C)(C)C1=O | 2.92%
COC(=O)C(C)N(c1ccc(OC)cc1)S(C)(=O)=O (stereo not shown) | 15.7%
Cc1nc(C)c(C(=O)Nc2nc3c(C)cccc3s2)o1 | -4.12%
O=C(Nc1c(C(=O)N2CCN(c3ccccn3)CC2)oc2ccccc12)c1cccc([N+](=O)[O-])c1 | 7.86%
COc1ccc(S(=O)(=O)N2N=C(c3ccc(NS(C)(=O)=O)cc3)CC2c2ccco2)cc1 (stereo not shown) | -69.6%
O=C(Nc1nc(-c2ccc(F)cc2)cs1)c1cnccn1 | -1.92%
Cc1ccc(NC(=O)CCn2c(=O)c3cccn3c3ccccc32)cc1C | 19.6%
Cc1cc(C(=O)N/N=C/c2c(C)nn(-c3ccccc3)c2Cl)n[nH]1 | 2.71%
CCN(CC)CCNC(=S)Nc1ccc2nc(N3CCCC3)cc(C)c2c1 | 9.86%
c1cn2c(NC3CCCC3)c(-c3ccc(N4CCOCC4)cc3)nc2cn1 | -0.852%
CC/C(=N/Nc1ccccc1Cl)c1cnnc(-c2ccccc2)n1 | -19.5%
Cc1ccccc1C(=O)NCC(=O)NCC1(N2CCOCC2)CCCCC1 | -3.01%
